The source of these data is the supplement of paper PMC10600219.

Values joined by “and” are separate entries in the source; they are usually repeats but may differ in a detail not shown here. Equal values may be shown once. Where a name gives a salt, the structure may show the parent alone. ± gives the standard deviation of the averaged measurements. Whole data set: some 2,800 compounds, median “cell viability relative to vehicle” near 1.1, cut for the lowest 2% near 0.19. This is one part of the list.

The test concerns NCI-H2228 parental. Description: cell viability relative to vehicle (fraction of vehicle); NCI-H2228 is an ALK-positive lung cancer line and DTP means drug-tolerant persister; higher = less growth inhibition. As to conditions: 100 nM; treatment time 6 days. Summed up: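 Values give cell viability as a fraction of vehicle-treated cells. Parental and drug-tolerant persister NCI-H2228 cells (persisters made with 1000 nM of a targeted drug for 13 days) were exposed in 384-well plates to the 3114-agent TargetMol anti-cancer compound library at 100 nM, with DMSO as vehicle. ATP was then read after 6 days by the CellTiter-Glo 3D Cell Viability Assay.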
Take `Cn1c(=O)c2c(ncn2CC2OCCO2)n(C)c1=O` [Doxofylline]: the cell viability worked out at 1.2. Regarding `Oc1cc2c(cc1O)C(c1ccccc1)CNCC2` (stereo not drawn), the cell viability was 0.982.

As to `Cc1ccc([C@@H]2O[C@H](CO)[C@@H](O)[C@H](O)[C@H]2O)cc1Cc1ccc(-c2ccc(F)cc2)s1` [Canagliflozin], the cell viability came out at 1.05. The value for `C=C1C(=O)O[C@@H]2C[C@@]3(C)CCCC(=C)[C@@H]3C[C@H]12` [Isoalantolactone] was 0.94. The value for `CC(C)(C)c1cc(C(C)(C)C)c(NC(=O)c2c[nH]c3ccccc3c2=O)cc1O` [Ivacaftor] was 0.825; that for `CC(C)NC[C@@H](C(=O)N1CCN(c2ncnc3c2[C@H](C)C[C@H]3O)CC1)c1ccc(Cl)cc1` [Ipatasertib] was 1. The value for `CN1CCN(CC(=O)N2c3ccccc3C(=O)Nc3cccnc32)CC1` [Pirenzepine dihydrochloride] was 1.32. Take `CCCc1cc(C)[nH]c(=O)c1CNC(=O)c1cc(-c2ccnc(N3CCN(C)CC3)c2)cc2c1cnn2C(C)C`: the cell viability was found to be 1.09. Turning to `C=CCNc1ncnc2ccc(Br)cc12`, the cell viability was found to be 1.1. Under `CC(C)=CCC[C@](C)(O[C@@H]1O[C@H](CO)[C@@H](O)[C@H](O)[C@H]1O)[C@H]1CC[C@]2(C)[C@@H]1[C@H](O)C[C@@H]1[C@@]3(C)CC[C@H](O[C@@H]4O[C@H](CO)[C@@H](O)[C@H](O)[C@H]4O[C@@H]4O[C@H](CO)[C@@H](O)[C@H](O)[C@H]4O)C(C)(C)[C@@H]3CC[C@]12C` [Ginsenoside Rd] stands 1.18; under `OCC(CO)N[C@H]1C[C@](O)(CO)[C@@H](O)[C@H](O)[C@H]1O` [Voglibose], 1.01. With `Cc1cc(Nc2ncnc3ccc(NC4=NC(C)(C)CO4)cc23)ccc1Oc1ccn2ncnc2c1` [Irbinitinib], the cell viability was determined as 1.09. On to `CCc1ccc(/C=C2/SC(=S)NC2=O)cc1`, for which the cell viability is 1.14.

Regarding `Cc1ccc(Nc2nccc(N(C)c3ccc4c(C)n(C)nc4c3)n2)cc1S(N)(=O)=O` [Pazopanib], the cell viability was determined as 1.19. Under `CCCCC(=O)N(Cc1ccc(-c2ccccc2-c2nnn[nH]2)cc1)[C@H](C(=O)O)C(C)C` [Valsartan] stands 0.983; under `COc1cc(Nc2ncc3c(n2)-c2ccc(Cl)cc2C(c2c(F)cccc2OC)=NC3)ccc1C(=O)O` [Alisertib], 0.236; under `OC(CCN1CCCCC1)(c1ccccc1)c1ccccc1` [Loxeen], 1.07. The value for `CN1c2ccccc2C(=O)N2CCc3c([nH]c4ccccc34)C21` (stereo in doubt) [Evodiamine] was 0.886; that for `COc1ccc2cc1Oc1ccc(cc1)C[C@H]1c3cc(c(OC)cc3CCN1C)Oc1c(O)c(OC)cc3c1[C@H](C2)N(C)CC3` [Fangchinoline] was 1.06 ± 0.13. In the case of `O=C1c2cccc(O)c2C(=O)c2c(O)cccc21` [Antrapurol], the cell viability is 1.06. The value for `O=c1cc(N2CCOCC2)oc2c(-c3ccccc3)cccc12` was 1.01; that for `Nc1ncccc1-c1nc2ccc(-c3ccccc3)nc2n1-c1ccc(C2(N)CCC2)cc1` [Miransertib] was 0.838. In the case of `CCOC(N)=O` [Urethane], the cell viability is 1.03. For the compound `Nc1cc(C(F)(F)F)c(-c2cc(N3CCOCC3)nc(N3CCOCC3)n2)cn1` [Buparlisib], the cell viability amounted to 0.906. Regarding `O=C(NCCN1CCOCC1)Nc1ccc(C(=O)/C=C/c2cccc(N3CCOCC3)n2)cc1`, the cell viability was 1.09. Consider `Cc1c(C(=O)Nc2ccc(N3C[C@@H](C)O[C@@H](C)C3)nc2)cccc1-c1ccc(OC(F)(F)F)cc1`, for which the cell viability is 1.08. Under `CSCC[C@H](NC(=O)[C@H](Cc1c[nH]c2ccccc12)NC(=O)CCNC(=O)OC(C)(C)C)C(=O)N[C@@H](CC(=O)O)C(=O)N[C@@H](Cc1ccccc1)C(N)=O` [Pentagastrin] stands 0.739; under `Cc1ccc(Sc2cncc3sc(C(N)=O)cc23)cc1`, 1.11. `O=C1S/C(=C\c2ccc(OCc3cccc(B(O)O)c3)cc2)C(=O)N1Cc1ccc(F)cc1`: the cell viability turned out to be 1.06. The value for `CC(C)NNC(=O)c1ccncc1` [Iproniazid Phosphate] was 1.05; that for `CN(C)CCc1c[nH]c2ccc(CS(=O)(=O)N3CCCC3)cc12` [Almotriptan Malate] was 0.968.

Turning to `CCOC(=O)c1cc(O)c(O)c(O)c1` [Ethyl gallate], the cell viability was 1.14. For `CN(c1ncccc1CNc1nc(Nc2ccc3c(c2)CC(=O)N3)ncc1C(F)(F)F)S(C)(=O)=O`, the cell viability was 0.855 and 1.11. As to `COc1ccc(/C=C/C(=O)NO)c(-c2ccc(-c3ccccc3)cc2)c1`, the cell viability is 1.06.

On to `CC(CNC(=O)c1cccnc1)NC(=O)c1cccnc1` (stereo not drawn) [Nicaraven], for which the cell viability came to 1.08. For `O=C(O)CCC(=O)c1ccc(-c2ccccc2)cc1` [Fenbufen], the cell viability was 1.16.

Consider `CNc1ccc([N+](=O)[O-])c(Nc2ccc3[nH]ncc3c2)n1`, for which the cell viability came to 1.06. Under `CN1CCCN(C(=O)c2cccc(-c3ccc(/C=C4/C(=O)Nc5ccc(Cl)cc54)o3)c2)CC1` stands 0.82; under `CCCCCCCCOc1ccccc1C(=O)Nc1ccc(C(=O)OCC[N+](C)(CC)CC)cc1` [Otilonium bromide], 1.21; under `CCCCc1ncc(/C=C(\Cc2cccs2)C(=O)O)n1Cc1ccc(C(=O)O)cc1` [Eprosartan Mesylate], 1.13. Under `CC/C(=C(/c1ccc(O)cc1)c1ccc(OCCNC)cc1)c1ccccc1` [Endoxifen E-isomer hydrochloride] stands 1.04; under `CCOC(=O)c1ccc(NC2CCCCC2)c(N)c1` [Ferrostatin-1], 1.02. Under `O=C1c2c(O)ccc(O)c2C(=O)c2c(NCCNCCO)ccc(NCCNCCO)c21` [Mitoxantrone] stands 0.132.

Take `COc1ccc2[nH]cc(/C=C3\C(=O)Nc4ccc(NC(=O)CCN5CCCCC5)cc43)c2c1`: the cell viability came to 1.05. The value for `CCN1C(=O)C=CC1=O` [N-Ethylmaleimide] was 1.16; that for `O=C(NC(Cc1cc(=O)[nH]c2ccccc12)C(=O)O)c1ccc(Cl)cc1` (stereo not drawn) [Rebamipide] was 1.24; that for `CC(C)c1cc(C(C)C)c(CC(=O)NS(=O)(=O)Oc2c(C(C)C)cccc2C(C)C)c(C(C)C)c1` [Avasimibe] was 0.983.

Turning to `O=C(NNc1nc2cc(F)ccc2n2cccc12)c1cnccn1`, the cell viability came out at 0.518.

Take `CC(C)=CCC[C@](C)(O)[C@H]1CC[C@]2(C)[C@@H]1[C@H](O)C[C@@H]1[C@@]3(C)CC[C@H](O)C(C)(C)[C@@H]3[C@@H](O[C@@H]3O[C@H](CO)[C@@H](O)[C@H](O)[C@H]3O[C@@H]3O[C@@H](C)[C@H](O)[C@@H](O)[C@H]3O)C[C@]12C` [Ginsenoside Rg2]: the cell viability is 1.15.

Consider `COC(=O)/C=C/C(=O)OC` [Dimethyl fumarate], for which the cell viability was found to be 1.21.

In the case of `Cc1c(C(=O)N2CCOc3ccc(-c4ccc(N)nc4)cc3C2)ccc(S(C)(=O)=O)c1F`, the cell viability was 1.05. Under `CC(NCCc1ccc(O)cc1)C(O)c1ccc(O)cc1` (stereo not drawn) [Ritodrine hydrochloride] stands 0.873; under `C[C@H](Nc1ncnc2nc[nH]c12)c1cc2cccc(Cl)c2c(=O)n1-c1ccccc1` [Duvelisib], 1.04. `O=C1CSc2ccccc2N1Cc1cccc(C(F)(F)F)c1`: the cell viability turned out to be 1.04.

As to `NC1CCN(c2c(F)cc3c(=O)c(C(=O)O)cn(C4CC4)c3c2Cl)C1` (stereo not drawn) [Clinafloxacin], the cell viability was found to be 1.19. Consider `C/C1=C/CC[C@H](C)C(=O)C[C@@H](C(C)C)C(=O)C1` [Curdione], for which the cell viability was 1.07.

Consider `CC(C)c1cnn2c(NCc3ccccc3)cc(NCCCCCCN)nc12`, for which the cell viability came to 0.884. Regarding `CCc1nn(CCCN2CCN(c3cccc(Cl)c3)CC2)c(=O)n1CCOc1ccccc1` [Nefazodone hydrochloride], the cell viability turned out to be 1.11.

For the compound `N[C@@H](CCCCNC(=O)C(F)(F)F)C(=O)O` [N-6-Trifluoroacetyl-L-lysine], the cell viability was found to be 0.931.

Turning to `O=C(c1ccc(F)c(F)c1Nc1ccc(I)cc1F)N1CC(O)([C@@H]2CCCCN2)C1` [Cobimetinib], the cell viability was 0.974.

With `O=S(=O)(c1cccc2cnccc12)N1CCCNCC1` [Fasudil hydrochloride], the cell viability worked out at 1.04. Under `COc1cc2nc(N3CCCN(C)CC3)nc(NC3CCN(Cc4ccccc4)CC3)c2cc1OC` stands 1.14. As to `CN1CCN(c2ccc3[nH]c(-c4ccc5[nH]c(-c6ccc(O)cc6)nc5c4)nc3c2)CC1`, the cell viability worked out at 1.13. Under `O=C(CSc1nc2c(c(=O)n1-c1ccccc1)SCC2)Nc1ccc(-c2ccccc2)cn1` stands 0.913.

As to `CCC(C)(C)C(=O)O[C@H]1C[C@@H](C)C=C2C=C[C@H](C)[C@H](CC[C@@H]3C[C@@H](O)CC(=O)O3)[C@H]21` [Simvastatin], the cell viability came out at 1.14.

Take `Cn1cc(C2=C(c3cccc(N)c3)C(=O)NC2=O)c2ccccc21`: the cell viability is 1.05.

In the case of `CCN1CCN(Cc2ccc(NC(=O)c3ccc(C)c(NC(=O)c4cncc(-c5cccs5)c4)c3)cc2C(F)(F)F)CC1`, the cell viability was 0.829. Consider `N#CC[C@H](C1CCCC1)n1cc(-c2ncnc3[nH]ccc23)cn1` [Ruxolitinib], for which the cell viability is 1.04.

Take `COc1cc(NC(=O)Nc2cccc(CNC(=O)O[C@H]3CCOC3)c2)ccc1-c1cnco1` [Merimepodib]: the cell viability amounted to 1.15. The value for `CC1CCC(C(C)C)C(O)C1` (racemic) [DL-Menthol] was 1.22; that for `CCCc1nn(C)c2c(=O)[nH]c(-c3cc(S(=O)(=O)N4CCN(C)CC4)ccc3OCC)nc12` [Sildenafil citrate] was 1.12. As for `COc1cc(O)c(C(=O)/C=C/c2ccccc2)c(OC)c1` [Flavokawain B], the cell viability turned out to be 1.16. `NNC(=O)c1ccncc1.Nc1ccc(C(=O)O)c(O)c1` [Pasiniazid]: the cell viability amounted to 1.16.

Take `CN(C[C@@H]1COCCO1)S(=O)(=O)Nc1ccc2ccc3ncc(-c4cnn(C)c4)cc3c(=O)c2c1`: the cell viability is 1.12. In the case of `c1ccc(-c2nn3c(c2-c2ccnc4cc(OCCN5CCOCC5)ccc24)CCC3)nc1`, the cell viability turned out to be 0.933. The value for `O=C(O)c1ccccc1Nc1cccc(C(F)(F)F)c1` [Flufenamic acid] was 1.2. Consider `O=C(O)Cn1nnc(-c2cc(N3CCC(Oc4cc(F)ccc4Br)CC3)no2)n1`, for which the cell viability amounted to 1.08. The value for `Clc1ccc(C(c2ccccc2Cl)C(Cl)Cl)cc1` (stereo not drawn) [Mitotan] was 1.07.
